# Tests used:
# DRG neurons = experiment: Calcium imaging: 9,10-EpOME-evoked calcium transients in DRG neurons; format: cell-based, mouse
# Method: FIG. 2: Direct effects of 9,10-EpOME on DRG-neurons. (a) Application of 9,10-EpOME [10 μM, 30 s] causes calcium transients on DRG neurons which respond to high potassium (50 mM KCl, 30 s). A representative trace is shown. (b) Dose response relationship of 9,10-EpOME dependent calcium increases in DRG neurons related to the number of responding neurons Data represents the mean ±SEM of five measurements per concentration. (c) and (d) Calcium transients caused by 9,10-EpOME [10 μM, 30 s] can be disrupted using calcium-free medium containing EGTA (2 mM) washed in 2 minutes before and after 9,10-EpOME stimulation. Data represents the mean ±SEM of 24 (calcium-free) or 16 (control) neurons. (e) and (f) Calcium transients of 9,10-EpOME [10 μM, 30 s] can be blocked by a selective TRPV1 antagonist (AMG 9810, 1 μM) but not by a selective TRPA1 antagonist (HC-030031, 20 μM) washed in for two minutes prior to the second 9,10-EpOME stimulation. Data represents the mean ±SEM of 16 (control), 31 (AMG 9810) or 18 (HC-030031) neurons; **p<0.01, student's t-test.
# Next, the inventors characterized 9,10-EpOME concerning its effects on DRG-neurons in calcium imaging experiments. […]
# TRPA1 = target: T1, TRPA1 (Mus musculus, UniProt Q8BLA8); experiment: Calcium imaging: TRPA1 sensitization, mustard oil (AITC) responses of DRG neurons; format: cell-based; details: 9,10-EpOME 1 μM
# T1 construct: Murine DRGs were dissected from spinal segments; endogenous in cells; host or cells: primary mouse dorsal root ganglion neurons
# [1] = system: TRPV1 dependent CGRP release; experiment: iCGRP release from isolated sciatic nerves or neuron enriched DRG cultures; format: cell-based, mouse
# TRPV1 = TRPV1 (Mus musculus, UniProt Q704Y3); experiment: Calcium imaging: TRPV1 sensitization, double capsaicin stimulation of DRG neurons
# [2] = system: neuron enriched DRG cultures; experiment: cAMP in neuron-enriched DRG cultures; format: cell-based, mouse; details: 1 μM for 15 minutes
# [3] = system: lamina II neurons of spinal cord slices; experiment: sEPSC recordings in lamina II neurons of spinal cord slices; format: cell-based
# Method: (d) Frequency of sEPSCs. […] (E) Amplitude of sEPSCs. […] To confirm the effect of TRPV1 sensitization by 9,10-EpOME with electrophysiological means, the inventors measured sEPSCs from lamina II neurons of spinal cord slices using two capsaicin stimulations [1 μM] and incubating the cells prior to the second capsaicin stimulus with 9,10-EpOME [1 μM] (FIG. 3C). […] In combination with capsaicin, however, the sEPSC frequency was strongly potentiated (FIG. 3D). However, no difference in the amplitude of sEPSCs could be observed with either 9,10-EpOME, […] or the combination of both substances (FIG. 3E).
# [4] = system: G-protein coupled receptor in DRGs; experiment: [35S] GTPγS binding assay in membrane fractions of rat DRGs; format: biochemical; details: 1 μM 9,10-EpOME, 30 minutes, 30 μM GDP
# TRPV1, sequence (Q704Y3 whole entry): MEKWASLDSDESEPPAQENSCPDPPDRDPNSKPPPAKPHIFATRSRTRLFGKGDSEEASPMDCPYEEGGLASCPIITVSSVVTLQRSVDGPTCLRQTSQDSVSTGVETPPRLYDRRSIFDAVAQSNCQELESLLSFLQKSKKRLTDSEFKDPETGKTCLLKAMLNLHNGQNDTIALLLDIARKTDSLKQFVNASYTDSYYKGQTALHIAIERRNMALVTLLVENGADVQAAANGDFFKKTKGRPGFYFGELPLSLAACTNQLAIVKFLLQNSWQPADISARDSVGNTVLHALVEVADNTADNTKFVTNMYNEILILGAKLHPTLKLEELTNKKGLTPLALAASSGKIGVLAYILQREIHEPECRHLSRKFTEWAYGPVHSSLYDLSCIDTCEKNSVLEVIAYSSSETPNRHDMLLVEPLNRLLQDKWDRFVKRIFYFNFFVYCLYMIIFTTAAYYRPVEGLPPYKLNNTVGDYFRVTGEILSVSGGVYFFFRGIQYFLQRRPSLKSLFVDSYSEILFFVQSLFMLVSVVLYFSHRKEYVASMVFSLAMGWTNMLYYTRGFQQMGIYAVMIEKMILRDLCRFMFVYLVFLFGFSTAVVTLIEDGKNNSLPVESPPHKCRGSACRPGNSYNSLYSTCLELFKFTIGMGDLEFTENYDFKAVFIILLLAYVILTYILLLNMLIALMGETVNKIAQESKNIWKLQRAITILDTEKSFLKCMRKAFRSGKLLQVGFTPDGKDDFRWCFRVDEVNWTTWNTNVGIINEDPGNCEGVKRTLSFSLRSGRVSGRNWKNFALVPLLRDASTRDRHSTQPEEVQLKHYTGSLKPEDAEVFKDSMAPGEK
# T1 sequence (Q8BLA8 whole entry): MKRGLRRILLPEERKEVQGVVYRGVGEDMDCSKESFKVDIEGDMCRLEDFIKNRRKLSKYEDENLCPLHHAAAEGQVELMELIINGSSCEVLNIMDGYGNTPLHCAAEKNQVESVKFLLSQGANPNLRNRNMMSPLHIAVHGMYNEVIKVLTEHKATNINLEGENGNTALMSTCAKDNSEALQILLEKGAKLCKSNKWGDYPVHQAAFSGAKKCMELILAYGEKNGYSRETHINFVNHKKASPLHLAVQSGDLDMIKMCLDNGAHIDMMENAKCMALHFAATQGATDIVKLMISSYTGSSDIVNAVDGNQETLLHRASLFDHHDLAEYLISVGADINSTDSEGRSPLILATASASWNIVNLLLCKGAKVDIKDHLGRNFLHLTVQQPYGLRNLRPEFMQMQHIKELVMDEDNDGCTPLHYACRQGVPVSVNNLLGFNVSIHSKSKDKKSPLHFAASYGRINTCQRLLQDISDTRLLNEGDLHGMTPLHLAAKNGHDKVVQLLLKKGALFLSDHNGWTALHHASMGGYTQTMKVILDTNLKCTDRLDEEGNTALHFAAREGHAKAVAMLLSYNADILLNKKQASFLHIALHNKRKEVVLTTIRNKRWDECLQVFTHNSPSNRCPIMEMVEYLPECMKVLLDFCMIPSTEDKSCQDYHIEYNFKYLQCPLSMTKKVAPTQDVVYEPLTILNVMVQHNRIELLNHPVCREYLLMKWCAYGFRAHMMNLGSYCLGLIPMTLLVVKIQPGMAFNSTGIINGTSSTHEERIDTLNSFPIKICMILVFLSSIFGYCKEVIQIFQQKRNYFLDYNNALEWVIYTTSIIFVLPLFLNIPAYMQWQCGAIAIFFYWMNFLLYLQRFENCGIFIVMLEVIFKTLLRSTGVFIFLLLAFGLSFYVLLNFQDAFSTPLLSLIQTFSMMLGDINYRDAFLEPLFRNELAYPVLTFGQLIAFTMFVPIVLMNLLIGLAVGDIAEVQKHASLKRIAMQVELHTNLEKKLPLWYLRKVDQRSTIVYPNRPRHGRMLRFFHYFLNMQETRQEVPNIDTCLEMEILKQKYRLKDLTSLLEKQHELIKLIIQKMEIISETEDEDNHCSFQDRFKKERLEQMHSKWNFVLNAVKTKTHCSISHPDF
structure (smiles),measurement,setting,value
"CCCCC/C=C\CC1OC1CCCCCCCC(=O)O (stereo not shown) [9,10-EpOME, 9,10-epoxy-12Z-octadecenoic acid]",calcium transient in DRG neurons,"DRG neurons; 10 μM, 30 s stimulation",caused a calcium transient in DRG neurons
same,maximum percentage of DRG neurons responding with calcium transients,"DRG neurons; 25 μM of 9,10-EpOME",10.3%
same,sensitization of mustard oil-dependent TRPA1-responses,TRPA1,could not be sensitized
same,CGRP-release from DRG cultures at the higher EpOME concentration,"[1]; 2.5 μM of 9,10-EpOME",no significant increase
same,release of iCGRP from neuron enriched DRG cultures,[1]; EpOME and capsaicin together versus either substance,significantly increased
same,CGRP release from sciatic nerves,"[1]; co-stimulation 9,10-EpOME 1 μM with capsaicin 500 nM",strong increase
same,"amplitudes of the second capsaicin responses compared to vehicle, dose response","TRPV1; 9,10-EpOME 250 nM to 2 μM",dose dependent increase
same,response of DRG neurons to second capsaicin stimulus (TRPV1 sensitization),"TRPV1; 9,10-EpOME 1 μM for two minutes, capsaicin 200 nM, 15 s",significantly stronger response
same,cAMP concentrations compared to vehicle,[2],significant increase
same,"frequency of sEPSCs, substance alone","[3]; 1 mM as printed in legend, baseline 6.9±0.4 Hz, n=5 neurons",8.2±0.8 Hz
same,"frequency of sEPSCs, 2nd capsaicin plus 9,10-EpOME","[3]; capsaicin (1 mM) plus 9,10-EpOME (1 mM) as printed, n=5 neurons",18.7±1.1 Hz
same,amplitude of sEPSCs,[3]; n=5 neurons/group,no significant effects
same,GTPγS signal,[4],significantly increased signal

# — patent publication US11944613B2, “CYP2J2 antagonists in the treatment of pain” (FRAUNHOFER-GESELLSCHAFT ZUR FÖRDERUNG DER ANGEWANDTEN …, priority 2014, dated 2024)
